Test results from PubChem BioAssay AID488969 (Vanderbilt High Throughput Screening Facility, 2010).
Over roughly 110,000 compounds, “z-score” has its median near -0.1; the highest 2% begin near 2. The list shows a part of the results. Calls of active or inactive are those of the source.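 Rule for the calls: active = z-score in the third read window above 3 or below -3; inactive = the rest.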

What follows are compounds tested against Metabotropic glutamate receptor 8 (Rattus norvegicus) (UniProt P70579) (assay: mGluR8 Gi/Go-coupled signaling modulation – cell-based, rat, thallium flux, HTS, primary screen (AID 488969)). Details: HEK293 rat mGluR8, GIRK (G protein-gated inwardly rectifying potassium channel) thallium flux, FluoZin2; at 10 µM; stronger effect = higher value; submaximal glutamate (EC20) added with thallium.
UniProt P70579, sequence (P70579 whole entry, looked up): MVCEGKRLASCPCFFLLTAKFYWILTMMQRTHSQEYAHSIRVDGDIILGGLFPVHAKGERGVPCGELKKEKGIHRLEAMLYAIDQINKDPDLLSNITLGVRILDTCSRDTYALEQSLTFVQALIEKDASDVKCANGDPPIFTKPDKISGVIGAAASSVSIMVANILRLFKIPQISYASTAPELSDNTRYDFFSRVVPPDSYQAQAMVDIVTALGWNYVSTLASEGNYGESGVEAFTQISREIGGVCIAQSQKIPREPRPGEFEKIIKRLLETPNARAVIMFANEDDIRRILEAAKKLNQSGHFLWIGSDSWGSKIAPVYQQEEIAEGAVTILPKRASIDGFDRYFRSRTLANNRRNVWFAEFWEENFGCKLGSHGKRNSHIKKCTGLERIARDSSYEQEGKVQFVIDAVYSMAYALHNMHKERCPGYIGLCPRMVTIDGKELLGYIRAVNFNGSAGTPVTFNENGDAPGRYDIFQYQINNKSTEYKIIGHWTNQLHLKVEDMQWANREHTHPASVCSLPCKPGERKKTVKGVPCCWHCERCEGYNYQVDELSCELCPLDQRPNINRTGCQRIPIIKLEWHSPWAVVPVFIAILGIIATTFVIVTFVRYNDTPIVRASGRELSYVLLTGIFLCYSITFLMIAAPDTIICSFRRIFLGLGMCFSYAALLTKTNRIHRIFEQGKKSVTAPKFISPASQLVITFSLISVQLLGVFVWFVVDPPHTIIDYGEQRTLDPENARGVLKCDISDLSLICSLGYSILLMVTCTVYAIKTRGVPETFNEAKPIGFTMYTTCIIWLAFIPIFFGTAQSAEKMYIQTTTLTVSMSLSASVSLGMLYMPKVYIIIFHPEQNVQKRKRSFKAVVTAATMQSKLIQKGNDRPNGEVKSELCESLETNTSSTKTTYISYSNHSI

Point of comparison: `Cc1ccc(-c2ccc(SCC(=O)Nc3ccc4c(c3)OCCO4)nn2)cc1`, z-score -0.351. Against it:
- CCC(=O)c1ccc(OCC(O)CN(C)C2CCCCC2)cc1 (configuration not stated) — higher, 0.0787
- O=C(Nc1ccccc1C(=O)O)c1cccc(NC(=O)c2ccc(Br)o2)c1 — lower, -1.87
- O=C1C(c2ccccc2)C(c2ccccc2)NC(c2ccccc2)C1c1ccccc1 (configuration not stated) — higher, 0.00927
- COc1ccc(S(=O)(=O)N2CCCCC2)cc1 — higher, 0.442
- Cc1cc(N/N=C/c2ccccc2)nc(NCc2ccccc2)n1 — higher, -0.172
- Cc1noc(NS(=O)(=O)c2ccc(N3C(=O)c4ccccc4C3=O)cc2)c1C — higher, 0.00423
- CS/C(=N\S(=O)(=O)c1cccs1)Nc1ccc(Br)cc1F — lower, -0.63
- CCCc1nc2c(nnn2Cc2ccccc2F)c(=O)[nH]1 — higher, -0.14
- COCCCNC(=O)Cn1ncc2ccsc2c1=O — higher, -0.327
- COC(=O)c1c(NC(=O)c2ccco2)sc(C(=O)N(C)C)c1C — lower, -0.412
- c1ccc(-c2cnnc(N3CCOCC3)n2)cc1 — higher, 0.147
- CCCCC1NC(=S)N(C2CCCCC2)C1=O (configuration not stated) — lower, -0.596
- CCn1ncc(/C=N\NC(=O)COc2cc(C)cc(C)c2)c1C — higher, -0.0153
- CC1(C)CC(=O)C(CC2=C(O)CC(C)(C)CC2=O)=C(O)C1 — higher, -0.327
- O=C(NCCc1ccc(Cl)cc1)/C(=C/c1cccnc1)NC(=O)c1ccccc1 — higher, 0.243
- O=C(NNC(=S)Nc1cccc(C(F)(F)F)c1)c1cccc(Cl)c1 — higher, 2.97
- CC(=O)Nc1cc(C(=O)NCc2ccco2)ccc1Sc1ccc(F)cc1 — higher, -0.293
- O=C(c1cccc(S(=O)(=O)N2CCCCC2)c1)N1CCCCC1 — higher, -0.33
- Cc1cc(C)cc(NS(=O)(=O)c2ccc(Oc3ncc(C(F)(F)F)cc3Cl)cc2)c1 — lower, -0.356
- Cc1ccc(CSc2nnc([C@@H]3CCCN3)o2)cc1 — higher, 0.148
- O=CNc1ccc(S(=O)(=O)NCc2ccccc2)cc1 — lower, -0.522
- CC12C(=O)N(CCC(=O)O)C(=O)C1C1C=CC2C1 (configuration not stated) — higher, 0.561
- COc1cc(OC)c(C2C(C(=O)N3CCOCC3)=C(C)NC3=C2C(=O)CC(C)(C)C3)cc1OC (configuration not stated) — higher, -0.103
- COc1ccc(C2(CNC(C)=O)CCCC2)cc1OC — higher, 0.0484
- CC(=O)/C(=N/Nc1ccc(Br)cc1)Sc1cccc2cccnc12 — higher, 0.227
- O=C(COC(=O)c1cc([N+](=O)[O-])ccc1NCc1ccccc1)NC1CCCc2ccccc21 (configuration not stated) — higher, 0.679
- COc1ccc(CNc2oc(C)nc2C#N)cc1 — higher, -0.0711
- O=C(CCS(=O)(=O)Cc1ccccc1)N1CCN(Cc2ccccc2)CC1 — lower, -0.495
- CC1CCc2cc(F)ccc2N1C(=O)CSc1nnc2c3ccccc3n(C)c2n1 (configuration not stated) — higher, -0.143
- CCOC(=O)c1cccc(NC(=O)C2CCCO2)c1 (configuration not stated) — higher, 0.0911
- O=C(NCc1ccccc1)c1cccc(COc2ccc(Cl)cc2)c1 — higher, -0.113
- O=C(ON=C1CCN(S(=O)(=O)c2ccccc2)CC1)c1cccc(Cl)c1 — higher, 0.19
- Cc1ccsc1C(=O)OCC(=O)Nc1c(C)n(C)n(-c2ccccc2)c1=O — higher, 0.018
- Cc1ccccc1-c1nc(CS(=O)(=O)CC(=O)N2CCc3ccccc32)c(C)o1 — lower, -1.49
- CCc1ccc(OCC(=O)N/N=C2\CC(=O)c3ccccc32)cc1 — higher, 0.325
- Cc1ccc(C(C)C)c(OCCN2C(=O)NC(C)(C)C2=O)c1 — higher, -0.0276
- CCc1cc2c(=O)c(-c3ccc4c(c3)OCCO4)c(C)oc2cc1OS(C)(=O)=O — higher, 0.255
- COc1cc(-c2csc(N3CCOCC3)n2)cc(OC)c1OC — higher, -0.149
- CCCC(c1nnnn1CC1CCCO1)N1CCN(c2nc3ccccc3s2)CC1 (configuration not stated) — lower, -0.777
- NC(=S)N/N=C/c1cc([N+](=O)[O-])ccc1OCCOc1ccccc1 — higher, -0.231
- CCOc1ccc2nc(SCC(=O)Nc3ccc4c(c3)OCCO4)[nH]c2c1 — lower, -0.555
- Cc1c(C(=O)Nc2cccc(Cl)c2)cn2c(nc3ccccc32)c1C#N — higher, 0.424
- CC1CCC(C(=O)c2c(O)c3ccccc3oc2=O)CC1 (configuration not stated) — higher, -0.00138
- Cc1ccc(-c2nnn(CC(=O)N(CC3CCCO3)C(C(=O)NC3CCCCC3)c3ccc(F)cc3)n2)o1 (configuration not stated) — higher, -0.0464
- CC(=O)N1CCN=C1SCc1ccc(Br)cc1 — higher, 2.58
- CCC1(NC(C)=O)CC2CC1CC2NC(C)=O (configuration not stated) — higher, -0.273
- CC(=O)C1CCN(Cc2ccccc2)CC1 — higher, -0.262
- CC(=O)c1cnn(-c2cc(Oc3ccc(F)cc3)ncn2)c1C — higher, 0.354
- C=CCn1c(CSCc2ccc(Cl)cc2)nnc1SCC(=O)NCc1ccccc1 — lower, -0.461
- O=C(COC(=O)CC1CCCC1)Nc1cc2c(cc1Cl)C(=O)c1ccccc1C2=O — higher, -0.0898
- CC(OC(=O)c1cc2c(ccc3ccccc32)oc1=O)c1nc2ccccc2s1 (configuration not stated) — lower, -0.466
- Cc1ccc2nc(N3CC(=O)Nc4ccccc43)nc(-c3ccccc3)c2c1 — higher, 0.188
- O=C1c2ccccc2C(=O)c2c1ccc(C(=O)N1CCCCC1)c2NCCO — higher, 0.68
- O=C(COC(=O)c1cc[n+]([O-])cc1)NCC12CC3CC(CC(C3)C1)C2 — higher, 0.293
- CCOC(=O)N1CCN(Cc2cc(=O)oc3cc4c(cc23)CCC4)CC1 — higher, 0.328
- O=C(CSc1cccs1)Nc1ccc2ccccc2c1 — higher, -0.316
- O=C(COC(=O)c1cc(-c2cccs2)nn1-c1ccccc1)Nc1ccc(F)c([N+](=O)[O-])c1 — higher, -0.0381
- COC(=O)c1ccc(Cl)c(NS(=O)(=O)c2ccc3c(c2)OCCO3)c1 — lower, -0.374
- COc1ccc(CNC(=O)c2csnn2)cc1 — higher, 0.00744
- CCC(C(=O)N1CC2(C)CC1CC(C)(C)C2)N1C(=O)c2ccccc2C1=O (configuration not stated) — higher, 0.259
- Cc1ccc2[nH]c(C(=O)O)c(NC(=O)CN3CCN(c4cccc(C)c4C)CC3)c2c1 — lower, -1.03
- NC1=NC(=O)C2(COC(c3ccccc3Cl)OC2)S1 (configuration not stated) — higher, 0.681
- Fc1ccc(N2CCN(Cc3nnc(-c4ccccc4)o3)CC2)cc1 — higher, -0.203
- CN1CCN(CCCNC(=O)c2ccc3c(c2)N(Cc2ccccc2)CCS3)CC1 — higher, 0.775
- Cc1nc2sc(C(=O)c3ccccc3)c(N)c2c2c1CCCC2 — lower, -0.409
- NC(=O)c1ccccc1NC(=S)NC(=O)c1ccc(Br)o1 — higher, -0.219
- Cc1cccc(NC(=O)CSc2nnc([C@@H](N)Cc3ccccc3)o2)c1C — higher, 6.73e-05
- O=C(Nc1ccc2c(c1)OCCO2)NC1(C(F)(F)F)Oc2ccccc2O1 — higher, 0.441
- O=C1C2C3C=CC(C3)C2C(=O)N1Cc1ccc(CN2C(=O)C3C4C=CC(C4)C3C2=O)cc1 (configuration not stated) — higher, -0.294
- CCn1cc(C(C)NC(=O)COc2ccc(Cl)cc2C)c(C)n1 (configuration not stated) — higher, -0.0807
- CCOc1ccccc1Nc1ncnc2ccccc12 — higher, 0.098
- CCOc1c2c(nc3ccc(Cl)cc13)CCC2 — higher, -0.0952
- CC(NC(=O)NC1CCCCC1)C(c1cccs1)N1CCN(Cc2ccccc2)CC1 (configuration not stated) — lower, -1.18
- COc1ccccc1NC(=O)CN1C(=O)CSC(C)C1=O (configuration not stated) — higher, -0.0441
- COC(=O)CSc1cc(C)nc(NC(C)=O)n1 — higher, -0.202
- C/C(=N/NC(=O)c1cccs1)c1ccc(NC(=O)COc2ccc(Cl)cc2)cc1 — higher, -0.123
- N#CCSc1nc2ccccc2c(=O)n1CCC(=O)NCCc1ccccc1 — higher, 0.379
- Cc1nc2ncnn2c(N2CCN(C(c3ccccc3)c3ccccc3)CC2)c1C — higher, 0.0777
- CCCn1nnnc1-c1cccc(Cl)c1 — higher, -0.176
- O=C(COC(=O)c1ccccc1C(=O)N1CCN(c2ccccc2)CC1)Nc1ccc(F)cc1 — higher, 0.132
- Cc1ccc(-c2c[n+](CC(=O)Nc3nc(-c4ccc(F)cc4)cs3)c3n2CCC3)cc1 — higher, 0.585
- O=c1cc(N2CCc3ccccc3C2)[nH]c(=O)n1C1CCCCC1 — higher, -0.223
- Cc1nc2ccccc2c2oc(C(=O)NCCCN3CCC(C)CC3)cc12 — higher, 0.707
- CC1CCCN(C(=O)c2cc3c(-c4ccc(Cl)cc4)nn(C)c3s2)C1 (configuration not stated) — higher, 0.0374
- CCN(CC)C(=O)CN1C(=O)COCC1=O — higher, 0.212
- COc1ccc(-c2onc3ccc(Br)cc23)cc1 — higher, -0.14
- CC(c1nnnn1C(C)(C)C)N(Cc1cccnc1)Cc1ccccc1Cl (configuration not stated) — higher, -0.0427
- Cc1ccsc1C1C2=C(CC(C)(C)CC2=O)Nc2ncnn21 (configuration not stated) — lower, -0.396
- Cc1ccc(C(=O)Nc2nccs2)cc1S(=O)(=O)N1CCCCC1 — higher, 0.0939
- COc1ccc(/C=N/Nc2snc(SC)c2C#N)cc1OC — higher, 0.407
- O=C(O)c1ccc2nc(CO)[nH]c2c1 — higher, -0.107
- COc1ccccc1CNc1cc(C)ccc1C — higher, 1.01
- CCOC(=O)c1nnn(CC(=O)N2N=C(c3ccc(Cl)cc3)CC2c2ccc(OC)cc2)c1C(=O)OCC (configuration not stated) — higher, 0.387
- COc1ccc(C(C)=O)c(OC(=O)c2ccco2)c1 — higher, -0.243
- O=C(c1cnn(-c2ccccc2)c1)c1ccc2ccccc2c1O — higher, 0.749
- Cc1cc(C)cc(C(=O)NC(=S)Nc2ccc3c(c2)OCCO3)c1 — lower, -0.353
- CCCCCCOc1ccc(N2C(=O)CC(S/C(N)=N/N=C(\C)c3cccs3)C2=O)cc1 (configuration not stated) — higher, -0.173
- Cc1c(C)n(CC(O)CN2CCCCC2)c2ccccc12 (configuration not stated) — higher, 0.093
- COC(=O)c1ccc(C)c(NS(=O)(=O)c2ccc(OC)c(OC)c2)c1 — higher, 0.0216
- CC1(C)CC(=O)C=C(NCCO)C1 — higher, 0.177
- C/C(=N/NS(=O)(=O)c1ccc(C)cc1)c1cccc(NC(=O)c2cccc(Cl)c2)c1 — higher, -0.202
- COc1ccc(-c2nc3n(n2)C(c2ccncc2)C(C(N)=O)=C(C)N3)cc1 (configuration not stated) — higher, -0.0823
- O=C(Nc1ccccc1-c1ccccc1)c1cccc([N+](=O)[O-])c1 — higher, -0.107
- CSCc1cc(N(C)C)nc(SCc2ccc(Cl)c(Cl)c2)n1 — higher, -0.239
- COc1cnc(SCc2ccc(Cl)cc2)nc1Cl — higher, -0.163
- O=C(Nc1ccc[n+](CC(=O)c2cccc3ccccc23)c1)c1ccccc1 — higher, 0.182
- COc1ccc(N2CCN(c3ccc(NC(=O)C4CCCCC4)cc3C#N)CC2)cc1 — higher, -0.0647
- Cc1sc(NC(=O)c2ccccc2)c(C(=O)N2CCN(C)CC2)c1C — higher, 0.321
- COc1ccc2cc(C(=O)N3CCCCCC3)sc(=O)c2c1OC — higher, 0.936
- O=C(c1ccccc1NS(=O)(=O)c1ccccc1[N+](=O)[O-])N1CCOCC1 — higher, -0.286

`CC(C)Oc1cccc(C(=O)NC(=S)Nc2ccccc2)c1` was tested, and the z-score was active: 3.26.
